Data on one substance can be found in patent publication US20260117202A1.

This assay has as its target FHCS-1 (RSV strain A2) (UniProt P03420). Put plainly: ELISA; F coated 156.3 ng/ml; stored -80° C. On the technique in general: An ELISA detects its analyte on a solid surface through an enzyme-linked reagent.

For part of its entries the source gives two or more results. Only these are listed. There may be further records. Results that share an entry read as repeated measurements on other runs, samples or individuals.

As for Synagis® (antibody), the OD value is 0.027 OD and 0.008 OD [lines of one column].
